Assay results published in PubChem BioAssay AID720708 (National Center for Advancing Translational Sciences (NCATS), 2013).
Hit rate of the full screen: of about 360,000 compounds, about 660 (0.18%) were called active. Inconclusive results, whose numbers are uncertain, are shown with a selection of clear calls. Calls follow the shape of the dose curve; as a rule, active = well fitted inhibition curve with a large enough effect; inconclusive = small, poorly fitted or top-dose-only effect; inactive = no such curve, though single readings can be large or run the other way. No potency is given beside an inconclusive call; the fits are too rough.

These compounds were tested against Rap guanine nucleotide exchange factor 4 (Homo sapiens) (UniProt Q8WZA2) (assay: qHTS for Antagonist of cAMP-regulated guanine nucleotide exchange factor 2 (EPAC2): primary screen). Settings: EPAC2 GEF exchange of Rap1B-BODIPY-GDP, fluorescence; activity, negative = inhibition: at 114 µM (top of the series) unless noted.
% is scaled to controls: 0 for no effect and ±100 for the full control effect; potency is read from the fitted curve at half-maximal effect; tags tell the direction and shape of the fitted curve.
Also: nearly all actives have a fitted effect of over 45% in size.

UniProt Q8WZA2, sequence (Q8WZA2 whole entry, looked up): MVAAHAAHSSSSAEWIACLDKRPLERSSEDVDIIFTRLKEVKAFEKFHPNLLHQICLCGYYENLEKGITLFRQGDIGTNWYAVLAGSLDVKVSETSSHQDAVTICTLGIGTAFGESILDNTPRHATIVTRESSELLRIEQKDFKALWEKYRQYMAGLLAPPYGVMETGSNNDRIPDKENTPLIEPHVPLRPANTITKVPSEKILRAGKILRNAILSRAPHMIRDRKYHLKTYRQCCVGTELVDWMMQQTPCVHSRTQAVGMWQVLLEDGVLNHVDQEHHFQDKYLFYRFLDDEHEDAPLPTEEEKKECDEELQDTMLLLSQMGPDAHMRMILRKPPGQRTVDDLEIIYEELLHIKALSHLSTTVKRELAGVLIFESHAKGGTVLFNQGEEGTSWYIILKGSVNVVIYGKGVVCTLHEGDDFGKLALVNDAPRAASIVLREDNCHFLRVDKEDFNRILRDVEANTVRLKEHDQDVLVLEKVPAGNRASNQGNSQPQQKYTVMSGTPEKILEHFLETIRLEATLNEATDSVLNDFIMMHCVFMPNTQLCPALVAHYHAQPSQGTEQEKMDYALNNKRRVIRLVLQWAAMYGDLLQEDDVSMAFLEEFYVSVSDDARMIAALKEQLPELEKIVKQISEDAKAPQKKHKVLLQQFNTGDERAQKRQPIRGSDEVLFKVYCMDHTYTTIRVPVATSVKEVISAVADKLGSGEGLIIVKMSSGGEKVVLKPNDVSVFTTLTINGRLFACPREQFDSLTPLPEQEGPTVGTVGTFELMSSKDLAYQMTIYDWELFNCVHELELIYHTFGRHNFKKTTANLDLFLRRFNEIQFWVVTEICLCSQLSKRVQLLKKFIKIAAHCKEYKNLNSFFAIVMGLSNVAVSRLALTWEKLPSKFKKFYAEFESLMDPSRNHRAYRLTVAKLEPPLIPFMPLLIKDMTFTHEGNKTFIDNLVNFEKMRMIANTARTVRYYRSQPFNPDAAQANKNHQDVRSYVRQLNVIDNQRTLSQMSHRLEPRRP

SMILES | Potency | activity, negative = inhibition
CN(C)c1ccccc1-c1cc(NC=O)c2ncc(-c3cccc(C(F)(F)F)c3)n2c1 | inconclusive [inhibitor, partial curve] | –
Cc1cc(C)c(S(=O)(=O)c2cc(F)ccc2C)c(Cl)n1 | inconclusive [inhibitor, partial curve] | –
Cc1ccc(S(=O)(=O)Oc2ccccc2)cc1 | inconclusive [inhibitor, single point] | –
COc1ccc(C)cc1NC(C)C(=O)NC(=O)NC1CCCCC1 (stereo not drawn) | inactive | –
COc1ccc([C@H]2CC(=O)C=C(c3ccc(F)cc3OCc3ccccc3)C2)cc1OC | inconclusive [inhibitor, partial curve] | –
O=[N+]([O-])c1cc(Cl)cc(/C=N/NC(=S)Nc2ccc(S(=O)(=O)N3CCOCC3)cc2)c1O | active: 56.2 µM | –
CCc1ccc2c(c1)NC(=O)C2(C)Cc1cccc(F)c1 (stereo not drawn) | inconclusive [inhibitor, full curve, poor fit] | –
CC1=NOC(=O)/C1=C\c1ccc(-c2ccc(Br)cc2C(=O)O)o1 | inactive | –
CCC(=O)NC(c1ccc(OC)cc1)c1cc(Cl)c2cccnc2c1O (stereo not drawn) | inconclusive [inhibitor, full curve] | –
CC(C)Oc1cccc(C(=O)Nc2ccc(Br)cc2F)c1 | inconclusive [inhibitor, full curve, poor fit] | –
O=C(OCc1ccccc1)N1CCC2CC1c1c2cccc1N1CCOCC1 (stereo not drawn) | inconclusive [inhibitor, partial curve] | –
C=CCOC(=O)c1cc(-c2ccc(/C=C3\C(=O)NC(=O)C(C#N)=C3C)o2)ccc1Cl | inconclusive [inhibitor, single point] | –
Nc1c(C(=O)c2ccc(Cl)cc2)oc2ccccc12 | inactive | –
Cc1cccc(NC(=O)Cn2c(O)c(N=NC(=O)c3ccccc3O)c3ccccc32)c1 | inactive | –
CN(C)C(CNC(=O)CNC(=O)Cc1cccc2ccccc12)c1ccccc1 (stereo not drawn) | inactive | –
CCOC(=O)c1c(CC(C)C)csc1N | inconclusive [inhibitor, partial curve] | –
COc1ccccc1CNc1ccccc1F | inconclusive [inhibitor, partial curve] | –
O=c1ccc(NS(=O)(=O)c2ccccc2Cl)cn1Cc1ccc(Cl)c(Cl)c1 | inconclusive [inhibitor, full curve] | –
CC(=O)Nc1ccc(-c2ccc(NC(C)=O)c(O)c2)cc1O | inconclusive [inhibitor, single point] | –
O=C1N(c2ccccc2)C(c2ccccc2)C12CCCCC2 (stereo not drawn) | inconclusive [inhibitor, full curve] | –
CCOc1ccccc1NC(=O)C(C)SCc1ccccc1 (stereo not drawn) | inconclusive [inhibitor, partial curve, poor fit] | –
C=CCOc1cccc(/C=N/NC(=O)C(OC)c2ccccc2)c1 (stereo not drawn) | inconclusive [inhibitor, full curve] | –
COCCCN(C(=S)NC(=O)c1ccc(C(C)(C)C)cc1)c1c(N)n(Cc2ccccc2)c(=O)[nH]c1=O | inconclusive [inhibitor, partial curve] | –

SMILES | Potency | activity, negative = inhibition
CCC(C(=O)O)N1C(=O)/C(=C/C(C)=C/c2ccccc2)SC1=S (stereo not drawn) | inconclusive [inhibitor, single point] | –
COc1ccc(OC)c(C(=O)c2ccc([N+](=O)[O-])cc2)c1 | inconclusive [inhibitor, partial curve] | –
CCCc1nc2c(Cl)cc(C(F)(F)F)cn2c1Cc1ccc(OC)cc1C | inconclusive [inhibitor, full curve] | –
COc1cccc(COC(=O)c2ccc3c(c2)NC(=O)C(C)S3)c1OC (stereo not drawn) | inactive | –
CCC(CC)C(=O)N(C)c1c(C)nc2c(OCc3ccc(OC(F)F)cc3)cccn12 | inconclusive [inhibitor, full curve] | –
FC(F)Oc1ccc(NC(=S)NNc2ccnc3cc(Cl)ccc23)cc1 | inactive | –
Oc1c(Br)cc(Br)cc1C=Nc1cccc2ncccc12 | inconclusive [inhibitor, partial curve] | –
CCSc1nnc(NC(=O)c2ccccc2)s1 | inactive | –
COc1cc(NC(=O)c2ccccc2F)ccc1NC(=O)c1cc2ccccc2o1 | inactive | –
O=C(COC(=O)C1CCN(c2ccc(C(F)(F)F)cn2)CC1)NCc1ccccc1 | inconclusive [inhibitor, partial curve] | –
c1ccc2c(c1)oc1c(-c3cccc4nccn34)cccc12 | inconclusive [inhibitor, full curve, poor fit] | –
CCCCCCCCCCOC(=O)Cn1c(COc2ccccc2C)[n+](C)c2ccccc21 | inconclusive [inhibitor, partial curve] | –
Cc1noc(C)c1COc1ccccc1C(=O)N(C)Cc1ccc(C(C)(C)C)cc1 | inconclusive [inhibitor, partial curve] | –
CCOc1ccccc1C1NC(=O)NC(C)=C1C(=O)OCc1ccccc1 (stereo not drawn) | inconclusive [inhibitor, partial curve] | –
COc1cccc(NC(=O)CN(C)C(=O)c2cc3c(s2)CCCC3)c1 | inconclusive [inhibitor, full curve] | –
O=C1N(c2ccccc2C(F)(F)F)O[C@]1(c1ccccc1)C1CCCC1 | inconclusive [inhibitor, single point] | –
COC(=O)c1c(-c2ccc(F)cc2)csc1NC(=O)C1CCCO1 (stereo not drawn) | inconclusive [inhibitor, partial curve] | –
O=C(N/N=C/c1ccc(O)c(Br)c1)c1cc2c(ccc3ccccc32)o1 | inactive | –
Oc1cc(O)cc(/C=C/c2ccc(O)c(O)c2)c1 | inconclusive [inhibitor, partial curve] | –
O=[N+]([O-])c1ccccc1SN(Cc1ccccc1)c1ccccn1 | inconclusive [inhibitor, full curve] | –
CCCCC(CC)CO (stereo not drawn) | inactive | –
COC(=O)c1sc2ncccc2c1OCc1cccc(Cl)c1 | inactive | –
CCO[C@H]1OC(C(=O)NCc2nc3ccccc3[nH]2)=C[C@@H](c2ccc(C(F)(F)F)cc2)[C@@H]1CCCO | inconclusive [inhibitor, partial curve] | –

SMILES | Potency | activity, negative = inhibition
CC1CCc2c(sc(NC(=S)NC(=O)c3ccccc3)c2C#N)C1 (stereo not drawn) | inactive | –
O=c1cc(CN2CCCCC2)c2c(ccc3ccccc32)o1 | – | inconclusive: -3.7% [inhibitor]
Cc1ccc2nc(-c3ccc(F)cc3)c(Cc3ccccn3)n2c1 | inconclusive [inhibitor, single point] | –
Cc1ccc(C(=O)CSC2=C(C#N)C(c3ccco3)CC(=O)N2)c(C)c1 (stereo not drawn) | inactive | –
O=C(O)c1ccc(Cl)c(S(=O)(=O)NC(Cc2c[nH]c3ccccc23)C(=O)O)c1 (stereo not drawn) | inactive | –
O=S1(=O)CCO[C@H]2Cc3ccccc3[C@H]2N1Cc1cccc(C(F)(F)F)c1 | inconclusive [inhibitor, partial curve] | –
CC[C@@]1(O)C(=O)OCc2c1cc1n(c2=O)Cc2cc3c(CN(C)C)c(O)ccc3nc2-1 | inactive | –
COc1cc2c(cc1OC)/C(=C/C(=O)OCc1ccccc1)OC2 | inconclusive [inhibitor, partial curve] | –
CC(=O)Cc1nsc(NC(=O)c2ccc(COc3cccc(C)c3)o2)n1 | inactive | –
COCc1ccccc1C1=CC(=O)C[C@H](c2ccc(F)cc2)C1 | inconclusive [inhibitor, single point] | –
CCc1ccc(C2CC3C(CN2S(=O)(=O)c2ccc(C)cc2)[C@@H](O)C[C@@H](c2ccc(CC)cc2)N3S(=O)(=O)c2ccc(C)cc2)cc1 (stereo partly drawn) | inconclusive [inhibitor, single point] | –
C[C@@H](CSc1ccccc1)CN1CC[C@H](C(C)(C)C)CCC1=O | inconclusive [inhibitor, full curve] | –
O=C(NCCNC(=O)c1cc(OCC(F)(F)F)ccc1OCC(F)(F)F)Nc1cccc(C(F)(F)F)c1 | inconclusive [inhibitor, full curve] | –
O=C(CN1CCN(c2ccc(O)cc2)CC1)Nc1ccc(S(=O)(=O)N2CCCC2)cc1 | inconclusive [inhibitor, single point] | –
O=C(Cc1ccc(Br)cc1)N(Cc1ccccc1)c1ccccn1 | inconclusive [inhibitor, partial curve] | –
CCOc1c(OC)cccc1C1CC(=O)Nc2cc3c(cc21)OCCO3 (stereo not drawn) | inconclusive [inhibitor, single point] | –
O=C(C[C@@H]1C[C@@H]2c3cc(NS(=O)(=O)c4ccc(F)cc4)ccc3O[C@@H]2[C@H](CO)O1)NCc1ccc(Oc2ccccc2)cc1 | inconclusive [inhibitor, single point] | –
Cc1ccc(C)c(OCC(=O)Nc2ccc(S(=O)(=O)Nc3onc(C)c3C)cc2)c1 | inconclusive [inhibitor, partial curve] | –
CCSc1nc(C)cc(C)c1S(=O)(=O)c1ccccc1C | inconclusive [inhibitor, full curve] | –
COC(=O)c1sccc1NC(=O)c1cccc(OC)c1 | inactive | –
COc1cc(/C=C2\SC(N3CCC(C)CC3)=NC2=O)ccc1O | inconclusive [inhibitor, single point] | –
OC(c1ccccc1)c1nc(-c2cc(F)cc(F)c2)cs1 (stereo not drawn) | inconclusive [inhibitor, partial curve] | –
